Source: PMC4336329 (PLoS ONE, 2015)
In all, about 310,000 compounds went through this assay and about 14,000 (4.5%) showed an effect of 50% or more. The effect is printed as a negative number. Some of the results follow.

These compounds were tested against human ether-à-go-go-related gene (hERG) potassium channel (human, UniProt Q12809) (assay: primary screen, population patch clamp on CHO cells stably expressing hERG).
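Further: peak tail current of the secondary pulse compared with the same well before compound.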

human ether-à-go-go-related gene (hERG) potassium channel, sequence (Q12809 whole entry, looked up): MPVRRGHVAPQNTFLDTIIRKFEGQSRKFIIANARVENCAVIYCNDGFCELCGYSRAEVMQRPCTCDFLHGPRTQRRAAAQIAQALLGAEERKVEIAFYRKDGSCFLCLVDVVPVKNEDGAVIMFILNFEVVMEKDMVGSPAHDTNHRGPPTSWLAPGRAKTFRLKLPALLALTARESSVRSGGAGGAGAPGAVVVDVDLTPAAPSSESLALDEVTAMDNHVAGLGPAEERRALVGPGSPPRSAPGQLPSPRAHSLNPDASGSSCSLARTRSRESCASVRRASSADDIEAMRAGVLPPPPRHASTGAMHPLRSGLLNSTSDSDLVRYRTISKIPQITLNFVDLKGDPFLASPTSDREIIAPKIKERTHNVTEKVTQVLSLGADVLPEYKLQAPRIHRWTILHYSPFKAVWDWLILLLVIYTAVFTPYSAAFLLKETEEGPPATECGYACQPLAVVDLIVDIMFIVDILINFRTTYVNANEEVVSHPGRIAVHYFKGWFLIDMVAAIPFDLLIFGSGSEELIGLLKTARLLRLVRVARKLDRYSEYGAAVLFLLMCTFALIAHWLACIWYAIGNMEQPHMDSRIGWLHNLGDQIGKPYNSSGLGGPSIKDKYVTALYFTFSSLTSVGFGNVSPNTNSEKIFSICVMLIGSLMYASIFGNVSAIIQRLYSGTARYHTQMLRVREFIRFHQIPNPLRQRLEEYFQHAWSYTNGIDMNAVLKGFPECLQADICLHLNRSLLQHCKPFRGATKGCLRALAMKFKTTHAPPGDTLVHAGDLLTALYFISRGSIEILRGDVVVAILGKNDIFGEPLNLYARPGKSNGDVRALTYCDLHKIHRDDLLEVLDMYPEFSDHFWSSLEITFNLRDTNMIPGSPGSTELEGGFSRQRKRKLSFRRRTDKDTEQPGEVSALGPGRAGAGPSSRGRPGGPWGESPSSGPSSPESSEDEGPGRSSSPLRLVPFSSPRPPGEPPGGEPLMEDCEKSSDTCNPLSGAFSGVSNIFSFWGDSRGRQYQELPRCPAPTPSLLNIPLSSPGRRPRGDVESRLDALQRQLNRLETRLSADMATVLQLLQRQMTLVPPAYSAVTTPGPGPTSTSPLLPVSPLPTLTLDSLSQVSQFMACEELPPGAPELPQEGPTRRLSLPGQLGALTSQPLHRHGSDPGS

Row | SMILES | hERG current change (%, negative = inhibition) at 10uM [%]
1 | NC(=O)C(Cc1ccccc1)N1C(=O)c2ccccc2C1=O (stereo not drawn) | 15
2 | O=C(Cc1nc2ccccc2[nH]1)N/N=C/c1ccccc1 | 13.1
3 | COc1cc2c(C(=O)N3CCN(C)CC3)c(C)n(C)c2cc1Br | -9.17
4 | COc1ccc(OCC(=O)NNC(=O)c2cc3ccccc3o2)cc1 | 7.23
5 | COc1ccc(C(=O)Nc2cccc([N+](=O)[O-])c2)cc1Br | 0.628
6 | Clc1ccc(-c2noc(COc3ccccc3)n2)cc1 | 1.83
7 | CCOC(=O)Cn1nnc(-c2ccc(S(C)(=O)=O)cc2)n1 | 23.2
8 | Clc1ccc(-c2cn(-c3ccccc3)c3[n+]2CCS3)cc1.[Br-] | -59.4
9 | N[C@@H](Cc1cc(Br)c(O)c(Br)c1)C(=O)O | 8.52
10 | CCOc1ccccc1N1CCN(S(=O)(=O)c2cccs2)CC1 | 2.73
11 | CN(C)C(=O)CN1CCN(Cc2nc(CC3CC3)no2)CC1 | 18.6
12 | Cc1ccc(/C=C/C(=O)OC(C)C(=O)NC2CCCCC2C)o1 (stereo not drawn) | -21.8
13 | Cc1cc(C)c(OCCOCCN2CCNCC2)c(C)c1.O=C(O)C(=O)O | 6.59
14 | COc1cc(NC(=O)Cn2c(-c3cncs3)nc3ccccc32)cc(OC)c1OC | -31.3
15 | CC1(C)Cc2ccccc2C(N)=C1C#N | -0.0363
16 | COc1ccccc1NS(=O)(=O)c1cccc(C(=O)N/N=C/c2cn(-c3ccccc3)nc2-c2ccccc2)c1 | -32.9
17 | CC/C(=N\Nc1cccc2ccccc12)c1c(O)[nH]c(=O)[nH]c1=O | 10.5
18 | COC(=O)c1sccc1NC(=O)Nc1cccc(C(C)=O)c1 | -4.61
19 | CCC1CCC/C1=N\NC(=O)c1ccc(Cl)cc1 (stereo not drawn) | -4.87
20 | Cc1ccccc1S(=O)(=O)Nc1ncc(C(F)(F)F)cc1Cl | 27.3
21 | NC(=O)Cn1cnc2nc3n(c2c1=O)CCC3 | -4.97
22 | C=CCn1c(SCC(=O)NC2CCCC2)nc2sc(C)cc2c1=O | -5.84
23 | COc1ccccc1CN1CCNC(=O)C1CC(=O)NCCC1=CCCCC1 (stereo not drawn) | 14.7

Row | SMILES | hERG current change (%, negative = inhibition) at 10uM [%]
24 | NC(=O)NC(=O)COC(=O)CCCCCNS(=O)(=O)c1ccc2c(c1)OCCO2 | -1.97
25 | O=C(COc1ccc(S(=O)(=O)NC2CCCC2)cc1)NCC1CCCO1 (stereo not drawn) | 22.2
26 | FC(F)(F)c1cccc(Cc2noc(CN3CCC(N4CCCCC4)CC3)n2)c1 | -74.7
27 | O=c1cnc2cc([N+](=O)[O-])ccc2[nH]1 | 20.9
28 | Cc1ccc(-n2nc3c(c2NC(=O)c2ccco2)CS(=O)(=O)C3)cc1C | -37.2
29 | CCSc1c([N+](=O)[O-])c(=O)n(-c2ccccc2)c2ccccc12 | -1.42
30 | COc1ccccc1N1CCN(C2CCCN(Cc3ccc(Cl)cc3)C2)CC1 (stereo not drawn) | -41.1
31 | Cc1occc1C(=O)N1CCC2(CCCN(Cc3ccc(F)c(F)c3)C2)C1 (stereo not drawn) | -16.4
32 | Cc1ccc(NC(=O)C(c2ccc(Cl)cc2)N2CCOCC2)cc1 (stereo not drawn) | -8.18
33 | Clc1cccc(CN2CCN(Cc3ccco3)CC2)c1.O=C(O)C(=O)O | -7.79
34 | CC(=O)c1ccc(NC(=O)C[n+]2ccc(N(C)C)cc2)cc1.[Cl-] | -5.89
35 | Cc1ccc(CNC(=O)CCC(=O)Nc2nnc(C)s2)cc1 | 9.72
36 | Cc1noc(C)c1COc1cccc(C(=O)Nc2ccc3c(c2)OCO3)c1 | 9.81
37 | Cc1cccc(OCC(=O)Nc2ccccc2N2CCN(C)CC2)c1 | -51.2
38 | COCCCNC(=O)CN1C(=O)c2cccc3cccc1c23 | 10.5
39 | COc1ccc(-c2noc(CCC(=O)NC3CCN(Cc4ccccc4)CC3)n2)cc1 | -45.7
40 | CCN(C(=O)CSc1ncnc2sccc12)c1c(N)n(Cc2ccccc2)c(=O)[nH]c1=O | 2.15
41 | CCCC1(C(=O)OCC)NC(c2ccc(N(C)C)cc2)C2C(=O)N(c3ccc(F)cc3)C(=O)C21 (stereo not drawn) | -8.18
42 | O=c1[nH]c(=S)n(Cc2ccc(F)cc2)c(O)c1C=NCC1CCCO1 (stereo not drawn) | -61.9
43 | O=C(NCC1CCCO1)C(=O)NCC(c1ccco1)N1CCN(c2ccccc2)CC1 (stereo not drawn) | 0.7
44 | CCCCCCSc1ccc([C@H]2N[C@@](Cc3ccccc3)(C(=O)OC)[C@H]3C(=O)N(C)C(=O)[C@@H]23)cc1OC.O=C(O)C(F)(F)F | 5.93
45 | CCN(C1=NS(=O)(=O)c2ccccc21)N(CC)S(=O)(=O)c1ccc(C)cc1 | 19.8
46 | N#Cc1ccsc1NC(=O)CN1CCCCCC1 | -3.42

Row | SMILES | hERG current change (%, negative = inhibition) at 10uM [%]
47 | COC(=NC1CCCC1)C(O)c1c[nH]c2ccccc12 (stereo not drawn) | -1.61
48 | CCC(C)/C(C)=N/NC(=O)c1ccc(COc2ccc(Cl)c(C)c2)cc1 (stereo not drawn) | 5.21
49 | COc1ccc(C(CC(=O)Nc2ccc(Cl)cc2F)NC(=O)C(F)(F)F)cc1 (stereo not drawn) | 8.62
50 | CC(C)(C)c1ccc(OCCCC(=O)NC2=NCCS2)cc1 | 1.68
51 | CN(CC(=O)Nc1ccc(F)cc1)C(=O)Cn1c(=O)oc2ccccc21 | -8.26
52 | COCC(=O)Nc1cc(C(=O)NCCc2ccccc2)ccc1Cl | -21.3
53 | CCCCN1C(=O)C2(OCCCO2)c2cccc(C)c21 | 5.29
54 | CCN(CC)CCNC(=O)C1(O)c2cc(Br)ccc2NC(=O)N1c1cccc(OC)c1 (stereo not drawn) | 22
55 | COc1ccc(N(CC(=O)O)S(=O)(=O)c2c(C)n[nH]c2C)cc1 | -23.2
56 | COC(=O)[C@@H]1CCCN1Cc1nc(Cc2ccc(OC)c(OC)c2)no1 | 3.64
57 | Cl.NC(=NC1CCCCC1)c1ccc(Cl)cc1 | -39.2
58 | O=C(N/N=C/c1cc2c(cc1Br)OCO2)c1cc2ccccc2o1 | -44.5
59 | Oc1cccc2ccc(/C=C/c3cccs3)nc12 | -14.4
60 | CC(C)(C)OC(=O)N1Cc2ccccc2C[C@H]1C(=O)NCC(=O)NCC1CCCO1 (stereo partly drawn) | 18.7
61 | CCOc1ccc(OCCC(=O)OCC(=O)NCc2ccccc2)cc1 | 21.9
62 | FC(F)(F)c1ccccc1NC(=S)Nc1ccccc1 | 20.1
63 | O=C(COc1cccc2cccnc12)Nc1ccccc1N1CCOCC1 | -37.7
64 | CC(C)C(=O)Nc1ccc(Cc2ccc(NC(=O)C(C)C)c(O)c2)cc1O | -23
65 | CN1CCC(N(C)C(=S)NC(=O)c2cc(-c3cccc(Br)c3)nc3ccccc23)CC1 | -15.3
66 | Cc1cccnc1NC(=O)c1cccc(S(=O)(=O)N2CCN(c3ccc(F)cc3)CC2)c1 | -35.1
67 | COc1ccc(CNC(=O)CN2C(=O)NC(C)(c3cccc4ccccc34)C2=O)cc1OC (stereo not drawn) | 11.3
68 | Cc1ccc(S(=O)(=O)N2CCOCC2)cc1NC(=O)C(c1ccc(Cl)cc1)C(C)C (stereo not drawn) | 1.8
69 | c1ccc(CSc2n[nH]c(-c3ccco3)n2)cc1 | 3.87

Row | SMILES | hERG current change (%, negative = inhibition) at 10uM [%]
70 | CC(OC(=O)c1nc(Cl)ccc1Cl)C(=O)c1ccccc1 (stereo not drawn) | 7.87
71 | CCCCN(C(=O)c1c(CC)noc1C)c1c(N)n(CCC)c(=O)[nH]c1=O | 10.6
72 | C=CCNc1nc(Cl)nc(Nc2ccccc2)n1 | 1.99
73 | CCOC(=O)N1CCN(C(=O)CN(c2ccc(Cl)c(C(F)(F)F)c2)S(C)(=O)=O)CC1 | -29.1
74 | CCOC(=O)N1CCN(CC(O)COCc2ccc(OC)c(OC)c2)CC1.Cl (stereo not drawn) | -6.91
75 | Cc1ccc(C)c(OCC(=O)NCC(C)C)c1C | 11.1
76 | CCN1CCN(C(CNC(=O)c2ccc3c(c2)OCO3)c2cccnc2)CC1 (stereo not drawn) | -17.9
77 | C=CCn1c(SCCC(=O)O)nc2c1c(=O)n(C)c(=O)n2C | 22.8
78 | CCNC(=O)NC(=O)C(C)OC(=O)CCS(=O)(=O)c1ccc(C)cc1 (stereo not drawn) | 5.85
79 | CCOc1ccc(S(=O)(=O)NN)cc1 | 5.45
80 | CCOC(=O)C1(CCOc2ccccc2)CCN(Cc2ccc(OCC)c(CO)c2)CC1 | -79.5
81 | CS(=O)(=O)N1Cc2ccccc2CC1C(=O)O (stereo not drawn) | 18
82 | CCOCCCn1c(=S)[nH]c2cc(C(=O)N3CCC(C(N)=O)CC3)ccc2c1=O | -8.7
83 | CCOC(=O)NNC(=O)CCn1c2c(c3ccccc31)CCCC2 | -16.4
84 | CCCn1c(=O)c(C(=O)NNS(=O)(=O)c2ccc(C)cc2)c(O)c2ccccc21 | 1.26
85 | CSc1ncccc1C(=O)Nc1ccc(F)c(F)c1F | 15.6
86 | O=C(CSc1nnc2ccc(-c3ccc(Br)cc3)nn12)NCC1CCCO1 (stereo not drawn) | -43.3
87 | CC(C)OC(=O)CSc1nc2ncc(Cl)cc2[nH]1 | 9.74
88 | Cc1cccc(-n2nc([N+](=O)[O-])c(N3CCN(C(=O)c4ccco4)CC3)[n+]2[O-])c1 | -68.7
89 | Cc1ccc(S(=O)(=O)N2CCSC2C(=O)O)cc1 (stereo not drawn) | 1.52
90 | O=C(Oc1cc(Cl)cc(Cl)c1)c1cnc2n(c1=O)CCS2 | -0.77
